Results: the supplement of paper PMC4166925
± gives the standard deviation of the averaged measurements. The full ranking holds about 33,000 sequences; the median of “E-score (dimensionless, -0.5 to 0.5)” is about -0.046, and the highest 2% start at about 0.36. Some of the results follow.

Each sequence was assayed on T1, SpTbr T-box DNA-binding domain (GST fusion) (assay: PBM E-score of 8-mer (E-score (dimensionless, -0.5 to 0.5)); Tbr is Tbrain of the sea star Patiria miniata (Pm) or the sea urchin Strongylocentrotus purpuratus (Sp); higher = stronger binding preference; most listed sequences are background and not binding sites). Conditions: the construct has about 5 more residues each side.
T1 sequence: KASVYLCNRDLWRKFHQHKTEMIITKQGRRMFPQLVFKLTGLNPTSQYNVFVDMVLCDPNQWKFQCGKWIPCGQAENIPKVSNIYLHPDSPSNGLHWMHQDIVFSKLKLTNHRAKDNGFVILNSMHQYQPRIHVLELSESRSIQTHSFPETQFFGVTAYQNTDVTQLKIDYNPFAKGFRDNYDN
Outline: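 Expression of GST-fused Tbr T-box DNA-binding domains, each holding the full T-box plus roughly five flanking residues, was carried out in BL21 E. coli at 20 °C, with purification by glutathione affinity chromatography. Universal Agilent arrays made double-stranded by primer extension were incubated with the protein at 200 nM in PBS (pH 7.5), then scanned and quantified. All ungapped 8-mers were scored from probe intensities, and each received an enrichment E-score from the Universal PBM Analysis Suite, averaged over duplicate arrays.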

Sequence | PBM E-score of 8-mer
GACATCGA | -0.0335 ± 0.038
CGCACCGC | 0.228 ± 0.031
ATCGAGGA | -0.247 ± 0.017
ATGTATTA | -0.0951 ± 0.0048
TACTCGCA | 0.119 ± 0.013
AAGCTACC | -0.178 ± 0.013
ACACTCAA | 0.258 ± 0.016
GTTACGGA | -0.151 ± 0.03
ACCTGCCC | 0.0973 ± 0.016
AATGCCAA | 0.0663 ± 0.054
AACGGTCC | 0.0448 ± 0.0094
AAACAAGC | -0.06408 ± 0.0003
GCTATACC | -0.0559 ± 0.043
AGCACCTG | 0.398 ± 0.0042
CGCTCACC | 0.0959 ± 0.018
ATCAGCAA | -0.14 ± 0.0038
AAAGACCC | -0.269 ± 0.046
ATGCTTGA | -0.0555 ± 0.026
ATGCGCGA | 0.294 ± 0.02
TCGATCCA | 0.0226 ± 0.076
ACTGGAGA | -0.123 ± 0.052
ATCACAAG | 0.2978 ± 0.001
AGAGGACT | -0.3 ± 0.017
AGGTTTAC | -0.0845 ± 0.0097
ATCCGATA | -0.222 ± 0.0056

Sequence | PBM E-score of 8-mer
GGGTATCA | -0.108 ± 0.13
CACGACAA | 0.176 ± 0.012
CTCCCCTC | -0.0801 ± 0.0021
AAGTACAA | -0.0909 ± 0.047
CTCTTTTC | -0.0957 ± 0.099
CTGAGAAA | -0.0469 ± 0.13
GACGTGTA | 0.137 ± 0.015
AACACGAA | 0.109 ± 0.027
CTCCCGGA | -0.121 ± 0.018
AAGATGCG | 0.0549 ± 0.051
GAAGGCTA | -0.105 ± 0.0052
CTATGAAC | 0.0185 ± 0.031
GCTGAAAA | -0.078 ± 0.0015
AACACCAC | 0.344 ± 0.015
AGTAGTCA | -0.107 ± 0.071
CGGATCCA | -0.0207 ± 0.011
GTAGGCTA | -0.0979 ± 0.081
ATACAACA | 0.0155 ± 0.037
ACAAACGG | -0.0454 ± 0.039
AGAGCTCC | -0.255 ± 0.041
ACTCACTA | 0.0837 ± 0.051
ATCGGCAG | -0.191 ± 0.047
CTGTGAAC | 0.4126 ± 0.00049
CTTTAGCC | -0.161 ± 0.05
GGCCCCTA | -0.233 ± 0.047

Sequence | PBM E-score of 8-mer
CATCGTGA | 0.0143 ± 0.023
ATAGTGGA | 0.0285 ± 0.029
CGTTCGTC | 0.00445 ± 0.077
GACAACGA | 0.0761 ± 0.0075
ATCAATAC | 0.047 ± 0.0072
GAGATGCC | -0.11 ± 0.0057
CCCTTATC | -0.0336 ± 0.004
TAGGTCGA | -0.142 ± 0.08
AAGGACGC | -0.161 ± 0.065
ATGAAAAA | -0.192 ± 0.0027
AGTTTCAG | -0.093 ± 0.014
ACCGGTCT | -0.2154 ± 0.0004
ACGGCTAC | 0.0278 ± 0.016
CAGTTAAG | -0.0118 ± 0.015
CCGGACCC | -0.0146 ± 0.023
AAGCGCGT | 0.202 ± 0.033
AAGAGTAG | -0.176 ± 0.052
ACATTCGC | 0.311 ± 0.0065
ACCAACGT | -0.158 ± 0.022
CGTGAAGC | 0.287 ± 0.031
TGAGGAAA | 0.0953 ± 0.022
AAGTGGGT | 0.122 ± 0.035
CCCTGTCG | -0.00439 ± 0.04
AGCCTAAA | -0.0716 ± 0.1
ATCAGGTA | -0.128 ± 0.008

Sequence | PBM E-score of 8-mer
AAGTGGAC | -0.098 ± 0.026
ATAGTGAG | 0.231 ± 0.078
CACATGCA | 0.127 ± 0.018
ACATGCGC | 0.108 ± 0.049
AAGGGGAC | -0.175 ± 0.0059
TGCTATAA | -0.0597 ± 0.083
AATAAATT | -0.0273 ± 0.041
GTAATCTA | -0.178 ± 0.016
CACCATGG | 0.13 ± 0.043
ACGCGCTC | 0.0372 ± 0.028
ATCTACAA | -0.197 ± 0.025
AAAAGATC | -0.214 ± 0.097
TGAAGTAA | -0.157 ± 0.065
ACTTAACC | -0.0866 ± 0.049
GAGCTCCC | -0.06 ± 0.0044
ATCAGGAG | -0.129 ± 0.067
AGCGCCAC | 0.297 ± 0.03
AGCTTCAC | 0.161 ± 0.013
CTTATTCC | -0.209 ± 0.031
CGGCGACC | 0.0143 ± 0.11
TACCTGGA | -0.0653 ± 0.076
ATACAGAC | -0.0432 ± 0.019
ATAGAGAC | -0.217 ± 0.028
GTAGATCA | -0.274 ± 0.075
GAGATAAC | -0.0138 ± 0.0051

Sequence | PBM E-score of 8-mer
GTAAGTAA | 0.0966 ± 0.012
CGAGTAGC | 0.0635 ± 0.0055
CGGTCATA | -0.0666 ± 0.019
AAGCACGT | 0.0302 ± 0.0054
TAGCAAGA | -0.115 ± 0.072
GCTACTAC | 0.013 ± 0.035
ATTTGGAC | -0.184 ± 0.022
GCAATCAA | 0.0342 ± 0.047
CCGCGACA | 0.242 ± 0.019
ATTACCCC | -0.304 ± 0.11
TACAATGA | -0.21 ± 0.013
GGTGAGGA | 0.384 ± 0.0073
CTAAATAA | -0.0245 ± 0.099
AATCGCCC | -0.09 ± 0.0098
AGGATCAT | -0.109 ± 0.12
GCGGGGTA | -0.0031 ± 0.0049
AGCCCGGG | -0.244 ± 0.011
AATCCAGA | -0.152 ± 0.048
ATGCGGCG | -0.00773 ± 0.061
GTCCTGAA | -0.277 ± 0.031
AACTCGTG | 0.229 ± 0.0073
AAACTGTT | 0.174 ± 0.053
AACATTCT | -0.0673 ± 0.08
CTGGACAC | 0.024 ± 0.13
CAGAAGAA | -0.158 ± 0.00076

Sequence | PBM E-score of 8-mer
TCGGACGA | -0.0842 ± 0.0028
ACTAAAAT | -0.019 ± 0.0044
AGCAACTG | 0.132 ± 0.047
CTATTCCA | 0.00515 ± 0.045
ATAGGGAA | -0.286 ± 0.039
GGCACTCA | 0.135 ± 0.024
ATGGCTCG | -0.0192 ± 0.074
CAGCATGC | -0.17 ± 0.14
CGACAAGA | 0.2 ± 0.016
CTCACTCA | 0.153 ± 0.034
TGCGCGCA | 0.1609 ± 0.00059
ATCCTTCC | -0.1921 ± 0.0014
AGAACTAC | -0.085 ± 0.031
CACCGCTG | 0.127 ± 0.081
GAAGCCAA | -0.165 ± 0.085
CGCAAAGA | 0.0425 ± 0.05
ATTAATGC | -0.244 ± 0.046
GAATGCAC | -0.154 ± 0.03
ACCCGCTC | -0.128 ± 0.14
ATGGATCG | -0.115 ± 0.082
GCTGCTCA | -0.158 ± 0.025
CACAAGAG | 0.0417 ± 0.047
CTCGACGC | 0.18 ± 0.047
TAAGATTA | -0.199 ± 0.022
CCAGATGG | -0.0803 ± 0.011

Sequence | PBM E-score of 8-mer
CCATCTAC | -0.194 ± 0.046
CTGTACAC | 0.0318 ± 0.018
ACGTTCAC | 0.369 ± 0.0053
ACTATAGC | 0.143 ± 0.014
CGGAAATC | -0.153 ± 0.031
CATAGAGA | -0.161 ± 0.012
CCGGACAG | -0.191 ± 0.035
ACCACCGC | -0.0528 ± 0.033
CAATTACA | 0.0525 ± 0.064
AATGGCAA | 0.127 ± 0.015
AGACGCTA | -0.00794 ± 0.01
CCCGCCTC | 0.14 ± 0.11
CCCGGAAG | -0.115 ± 0.043
GGTAGGAC | -0.159 ± 0.035
AGGTCACG | 0.208 ± 0.032
ATATTAGC | -0.0698 ± 0.021
ATAGCGGC | -0.0064 ± 0.035
CCTAGCAC | 0.257 ± 0.016
AATGACAC | 0.3799 ± 0.0026
GGGCCGGA | -0.22 ± 0.022
GGTGCAAA | 0.3907 ± 0.0034
ATACCAGA | -0.23 ± 0.035
